Laboratory results published in PMC6919601, “Identification of Plasmodium dipeptidyl aminopeptidase allosteric inhibitors by high throughput screening” (PLoS ONE, 2019).
Screen size: about 110,000 compounds; about 230 (0.21%) showed an effect of 50% or more. Some of the results follow.

Each molecule was assayed against DPAP1 (Plasmodium falciparum, UniProt Q8IIJ9) (assay: primary screen, percent inhibition; read by cleavage of a fluorogenic dipeptide substrate; higher = more effect of the substance).
Parameters: species or system P. falciparum D10 trophozoite lysates; single well
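Also: 30 min substrate incubation versus DMSO and 10 µM JCP410 controls.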

Sequence of DPAP1 (Q8IIJ9 whole entry, looked up): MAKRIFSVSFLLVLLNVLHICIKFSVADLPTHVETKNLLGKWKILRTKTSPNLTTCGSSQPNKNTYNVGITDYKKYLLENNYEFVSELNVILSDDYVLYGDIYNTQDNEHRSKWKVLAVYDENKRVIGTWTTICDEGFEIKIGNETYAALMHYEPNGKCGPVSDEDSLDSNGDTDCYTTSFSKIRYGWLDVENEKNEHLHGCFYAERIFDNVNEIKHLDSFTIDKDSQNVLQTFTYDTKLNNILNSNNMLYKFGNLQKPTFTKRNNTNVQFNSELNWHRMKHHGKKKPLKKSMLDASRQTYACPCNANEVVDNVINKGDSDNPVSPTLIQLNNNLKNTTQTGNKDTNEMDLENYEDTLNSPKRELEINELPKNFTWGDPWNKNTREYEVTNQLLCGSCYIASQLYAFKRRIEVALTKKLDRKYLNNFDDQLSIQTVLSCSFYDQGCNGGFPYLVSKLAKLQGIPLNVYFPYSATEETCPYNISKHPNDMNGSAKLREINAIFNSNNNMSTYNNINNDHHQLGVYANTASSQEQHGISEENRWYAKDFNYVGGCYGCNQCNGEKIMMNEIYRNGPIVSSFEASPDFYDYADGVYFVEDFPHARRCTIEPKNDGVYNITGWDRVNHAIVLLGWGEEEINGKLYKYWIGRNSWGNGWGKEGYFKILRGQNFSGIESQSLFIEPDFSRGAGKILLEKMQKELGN

SMILES | % Inhibition @ 10 uM [%]
CCOc1ccc2c(=O)c(-c3ccccc3)coc2c1 | 5.37
CCN(CC)C(=O)C1CCCN(C2CCCCCC2)C1 (stereo not drawn) | -4.03
COc1ccc(CCN2C(=O)C(O)=C(C(=O)c3cccs3)C2c2ccc(C)cc2)cc1 (stereo not drawn) | -4.52
Cc1occc1C(=O)Nc1ccc2c(c1)OCO2 | 1.92
NC(=O)Cn1nnc2sc(-c3ccccc3)cc2c1=O | -1.16
CC(NC(=O)c1cc(N)cc(C(=O)NC(C)c2ccccc2)c1)c1ccccc1 (stereo not drawn) | 0.324
C=CCN1C(=O)S/C(=C/c2cc(C)n(-c3cc(C)ccn3)c2C)C1=O | -5.51
CCCOc1ccc(Cc2nn3c(=O)/c(=C\c4ccc(C)o4)sc3nc2=O)cc1 | 4.51
Cn1c2c(c(=O)n(C)c1=O)C(c1ccccc1F)C(C#N)=C(N)O2 (stereo not drawn) | -9.79
Cc1ccc(S(=O)(=O)N2CCC(C(=O)Nc3ccc(C(=O)O)cc3)CC2)cc1 | -2.22
C=CCN1C(=O)NC2(CCCCC2)C1=O | 1.33
CCOc1ccccc1NC(=O)COc1ccccc1 | -0.123
O=C(C1=COCCO1)N(c1ccccc1)c1ccccc1 | -3.66
CNC(=S)NCCc1c(C)[nH]c2ccccc12 | -2.16
CCN(CC)CCCNC(=O)C1CCN(c2nnc(-n3cccc3)s2)CC1 | -5.15
O=C1NC(c2c[nH]c3ccccc23)Nc2sc3c(c21)CCCC3 (stereo not drawn) | 7.92
Cc1cc(CN2CCc3ccccc3C2)cs1 | 1.77
O=C(CCSc1ccc(Cl)cc1)N1CCOCC1 | -6.05
CCC(C(=O)NC(C)C12CC3CC(CC(C3)C1)C2)n1nc(C)n2c(cc3occc32)c1=O (stereo not drawn) | -3.79
Cc1ccc(-c2cc(C(=O)NCCCN3CCCC3)c3ccccc3n2)cc1C | -2.26
O=C(Nc1cccnc1)c1sc2cccc(Cl)c2c1Cl | -6.36
COc1ccc(Cc2nnc3c4cnn(Cc5ccccc5)c4ncn23)cc1 | -2.14
OC(c1ccccc1)(c1cccs1)C1CN2CCC1CC2 (stereo not drawn) | 2.69
N#Cc1ccc(NC(=O)CSc2nc3ccccc3s2)cc1 | -6.62
COc1ccc(OC)c(S(=O)(=O)c2ccc(C)c(C)c2)c1 | -0.0369
O=Cc1ccc(-n2nncc2-c2ccccc2)cc1 | -2.62

SMILES | % Inhibition @ 10 uM [%]
COc1cc2c(cc1OC)C(c1ccc([N+](=O)[O-])cc1)NCC2 (stereo not drawn) | -5.5
O=C(O)c1cc(S(=O)(=O)N2CCCCC2)ccc1Cl | 1.13
CCCOc1ccc2oc(=O)c3c(c2c1)CCCN3C(=O)CN1CC(C)CC(C)C1 (stereo not drawn) | 10.9
Cc1oc2ccc(O)c(CN3CCN(C)CC3)c2c1C(=O)NCc1ccccc1 | 2.14
CC(C)OCCCNc1nc2ccccc2c2nc(-c3ccncc3)nn12 | -7.99
COc1cccc(OC)c1C(=O)Nc1cccc(C(F)(F)F)c1 | -1.36
C=CCNC(=O)CN(Cc1ccccc1)S(=O)(=O)c1ccccc1 | -15.4
CCc1nn(CC(=O)N2CCC(N3CCCCC3)CC2)c(=O)c2cc3sccc3n12 | 0.137
CC(CC(=O)O)N[C@H](C)c1ccccc1 (stereo partly drawn) | 0.968
Fc1ccc(N2CCN(Cc3ccc(Cl)cc3Cl)CC2)cc1 | -1.92
CCc1nc(C(C)(C)C)cc(C(=O)O)c1C(=O)O | 6.69
CCOc1ccc(C(=O)N(Cc2nc(-c3ccc(C)cc3)no2)C(C)C)cc1OCC | -0.0593
COc1cccc2c3c(c(O)nc12)CC(C)(C)O3 | 3.72
Cc1cc(NCc2ccccc2Cl)n2nc(C)nc2n1 | 3.51
Cc1cc(N2CCN(c3ccccc3)CC2)nc(-n2nc(C)cc2C)n1 | -3.83
O=C(NC1CCCCC1)c1cnn2c(C(F)(F)F)cc(-c3ccco3)nc12 | 0.909
COc1ccccc1C(=O)Nc1ccc(F)cc1F | -2.36
Cc1cc2c(cc1C)NC(c1coc3ccccc3c1=O)C1=C(O)CC(C)(C)CC1=N2 (stereo not drawn) | 3.05
O=C(NC(Cc1c[nH]c2ccccc12)C(=O)O)c1ccc(C#CC2(O)CCCCC2)cc1 (stereo not drawn) | 6.38
CCOC(=O)c1c(-c2ccccc2)csc1NC(=O)COCc1cc(-c2cccs2)on1 | -2.96
CCOCCCNC(=O)CCC(=O)n1ncc2c(C)cccc21 | 1.68
CN(C)CCCN(CCCN(C)C)Cc1ccc(-c2cccc(Cl)c2)o1 | -1.64
CCOC(=O)c1cnc(N2CCN(CC)CC2)nc1C | -1.85
CCOC(=O)N1CCN(C(c2ccccn2)c2ccc3cccnc3c2O)CC1 (stereo not drawn) | -5.32
CCC(C)NC(=O)c1ccc(CS(=O)(=O)Cc2ccc(Cl)cc2)o1 (stereo not drawn) | -3.12
COc1ccc(C2(NCc3cc(OC)ccc3OC)C(=O)c3ccccc3C2=O)cc1 | -4.8

SMILES | % Inhibition @ 10 uM [%]
COc1ccccc1C1CC(=O)CC(c2ccccc2OC)S1 (stereo not drawn) | 3.66
Cc1cc(C)c2c(-n3cccc3)c(C(=O)NCc3ccc(F)cc3)sc2n1 | 0.623
COc1cc(C2C(C#N)=C(N)Oc3cc(C)n(Cc4cccnc4)c(=O)c32)ccc1O (stereo not drawn) | -1.11
O=C(Nc1cccc(Cl)c1)C(=O)NC1CCCC1 | -0.414
CCCCN(C)Cc1ccc([N+](=O)[O-])cc1 | -3.57
Nc1nc(-c2ccc(Cl)cc2)nn1S(=O)(=O)c1ccccc1 | 4.22
O=C(C1=C(O)C(=O)N(CCCn2ccnc2)C1c1ccccc1)c1ccc2c(c1)OCCO2 (stereo not drawn) | 15.7
O=C1OC(c2ccc3c(c2)OCO3)=N/C1=C\c1ccc(Cl)cc1Cl | 4.54
Cc1nnc(SCc2ccc(F)cc2)nc1O | 3.62
Cc1ccc(S(=O)(=O)c2nc(S(C)(=O)=O)sc2N2CCN(Cc3ccccc3)CC2)cc1 | -0.522
CC(C)C[C@H](NC(=O)OCc1ccc2c(c1)OCO2)C(=O)NCC#N | 3.19
CN(C)S(=O)(=O)c1cccc(N)c1 | -1.5
COc1ccccc1/C=C1\S/C(=N/c2cccc(C(=O)O)c2)N(C)C1=O | 8.72
N=C1/C(=C\c2ccc(SCc3ccco3)o2)C(=O)N=C2SC(COc3ccccc3)=NN12 | 1.93
CCOc1ccc(-c2cc(NC(=O)NCc3noc4ccccc34)on2)cc1 | 3.51
CCCCn1c(NCc2ccncc2)nc2ccccc21 | 0.843
CN1C(=O)S/C(=C\c2cn(Cc3ccccc3F)c3ccccc23)C1=O | -1.26
COc1cc(OC)c(-c2nnc3n(Cc4ccccc4Cl)c(=O)c4ccccc4n23)cc1OC | -3.51
O=C(CSc1nc(O)c2c3c(sc2n1)CCCC3)NCCCN1CCOCC1 | 1.39
CCOC(=O)c1c(C)[nH]c(C)c1S(=O)(=O)NCCc1ccc(C)cc1 | 1.23
Cc1ccccc1CNC(=O)CCc1cn(C)c2ccccc12 | 2.49
CCOC(=O)N1CCN(Cc2nc3c(c(=O)[nH]c(=O)n3C)n2C(C)C(C)=O)CC1 (stereo not drawn) | -6.52
O=C(O)CS(=O)(=O)c1ccc2ccccc2c1 | -0.216
CCN(CC)c1ccc(NC(=O)c2ccc3c(c2)OCO3)cc1 | 0.163
CCc1nnc(SCC(=O)N(C)C2CCCCC2)c2cc3sccc3n12 | -1.38
Cc1ccc2nc(O)c3cc(C(=O)N4CCOCC4)sc3c2c1 | 4.22

SMILES | % Inhibition @ 10 uM [%]
CCOC(=O)c1c(N)sc2c1CCC(CC)C2 (stereo not drawn) | 16.6
Cc1sc2c(c1C)c(=O)n(CCc1ccccc1)c(=O)n2CC(=O)NCc1ccco1 | 6.32
O=C1S/C(=C\c2ccccc2)C(=O)N1Cc1ccc(F)cc1 | -6.57
CCOC(=O)c1c(C)[nH]c(C)c1S(=O)(=O)NC(C)CC (stereo not drawn) | 5.39
COc1cccc(CN2CCN(Cc3ccc(C(F)(F)F)cc3)CC2)c1 | -3.13
O=C(O)c1ccc(CNC(=O)C2CCC2)cc1 | -1.11
Cc1cc(C)c(C(=O)Nc2ccc3[nH]c(O)nc3c2)c(C)c1 | -3.74
CC(NC(=O)CN1CCN(Cc2ccc(Cl)cc2)C1=O)c1ccccc1 (stereo not drawn) | -0.984
COc1ccccc1-c1nnc2sc(-c3ccc4c(c3)OCCO4)nn12 | 2.68
O=C(/C=C/c1cn(CC(O)CN2CCCCC2)c2ccccc12)c1ccccc1 (stereo not drawn) | -1.74
O=C(C1=C(O)C(=O)N(CCc2c[nH]c3ccccc23)C1c1cccnc1)c1ccc(Cl)cc1 (stereo not drawn) | -7.77
O=C(Nc1ccccc1C(=O)Nc1ccccc1)c1ccc(-c2ccccc2)cc1 | 1.13
COc1ccc(C(C)C)cc1S(=O)(=O)N1CCN(C)CC1 | -0.123
CC1CN(C(=O)Nc2ccccc2)/C(=N/Cc2ccccc2)S1 (stereo not drawn) | -5.95
Cc1nn(-c2ccc(F)cc2)c(O)c1/C=N/c1cccc(Br)c1 | -2.16
COCC(C)NC1CCCCC1OC (stereo not drawn) | 4.38
CCOc1cc(C2C(C#N)=C(N)Oc3[nH]nc(C)c32)ccc1O (stereo not drawn) | 5.24
N=C1/C(=C\c2ccc(Br)cc2)C(=O)N=C2SC(N3CCOCC3)=NN12 | -3.44
C#CCN1C(=O)S/C(=C/c2ccc(OC)cc2C)C1=O | -5.34
Cc1nc(SCC2=C(C(=O)OC(C)C)C(c3ccccc3)C(C#N)=C(N)O2)c(C#N)c(C)c1C (stereo not drawn) | 7.98
Cc1cc(C)c(NC(=O)CSc2nc(C)cc(O)n2)c(C)c1 | 4.83
Fc1ccc(CN2CCN(Cc3ccccc3)CC2)c(F)c1 | 3.1
Cc1nc2ccccc2n1CCc1nc2c3ccccc3nc(NCc3ccc(F)cc3)n2n1 | -2.42
CCCSc1cc(N2CCN(C)CC2)nc(-c2ccc(OC)cc2)n1 | 2.27
